# Laboratory results: PubChem BioAssay AID686979 (National Center for Advancing Translational Sciences (NCATS), 2013)
# Several values for one entry are separate records, joined by “and”; a condition that tells them apart may be missing. Identical values can stand only once. About 50,000 (12%) of roughly 420,000 compounds were called active. This list was built around the results that the source calls inconclusive (neither active nor inactive); the mix of calls is not that of the screen. The call rests on the fitted dose curve; in most records, active means well fitted inhibition curve with a large enough effect; inconclusive means small, poorly fitted or top-dose-only effect; inactive means flat fitted curve, though single readings scatter. Potencies of inconclusive entries are doubtful fits and often do not repeat.
# Assay: qHTS for Inhibitors of human tyrosyl-DNA phosphodiesterase 1 (TDP1): qHTS in cells in presence of CPT; further: nearly all actives have a fitted effect of over 55% in size
# Conditions: chicken DT40 Tdp1-/-;hTDP1 cells + 20 nM CPT, ATP luminescence, 48 h; activity change, negative = growth inhibition: at 46.2 µM (top of the series)
# Outline: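 Chicken DT40 Tdp1-/- cells stably complemented with human TDP1 were seeded at 400 cells/well in medium containing 20 nM camptothecin, exposed to pin-transferred compounds, and grown at 37 °C for at least 48 hr. Viability was read as ATP luminescence.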
# On the % scale 0 is the no-effect control and ±100 the full control effect; potency means the concentration at half of the fitted maximal effect; tags describe the fitted curve by direction and shape.
Structure (SMILES),Potency,"activity change, negative = growth inhibition"
CCc1ccc(NS(=O)(=O)c2ccc3[nH]cc(C(=O)N(C)Cc4ccco4)c(=O)c3c2)cc1,"inactive and inconclusive: 20.6 µM [inhibitor, single point]",
Cn1c(=O)c(-c2cc(F)cc(F)c2)nc2cnc(Nc3ccccc3)nc21,"inconclusive: 29.1 µM [inhibitor, single point]",
COc1ccc(-c2csc(NC(=O)c3c(C)noc3C)n2)cc1,active: 14.6 µM,
CCCCNC(=S)NC(C)(C)CO,,inactive: -1.24%
O=C(Cn1cnc2c(nnn2-c2ccccc2)c1=O)N1CCCc2ccccc21,"inconclusive: 10.3 µM [inhibitor, single point]",
COc1ccc(NC(=O)N2CCCC(c3nc(-c4ccc(C(C)C)cc4)no3)C2)cc1 (configuration not stated),"inconclusive: 29.1 µM [inhibitor, single point]",
FC(F)(F)Oc1ccccc1C(c1nnnn1-c1ccc2c(c1)OCCO2)N1CCN(C/C=C/c2ccccc2)CC1 (configuration not stated),"inconclusive: 16.4 µM [inhibitor, single point]",
CC(C)(C)NC(=O)c1ccc2c(c1)C1C3CCC(C3)C1C(c1ccccc1)N2 (configuration not stated),active: 13 µM,
CC(C)CN(CCNC(=O)c1cn(C)c2ccc(S(=O)(=O)N3CCCC3)cc2c1=O)CC(C)C,,inconclusive: -4.34% [inhibitor]
CCc1nc2c(OCc3ccc(Cl)cc3Cl)cccn2c1N(C)C(=O)c1ccccc1F,"inconclusive: 23.1 µM [inhibitor, single point]",
COC(=O)C1(CC2CC(c3ccncc3)=NO2)CCN(C(=O)OC(C)(C)C)CC1 (configuration not stated),"inconclusive: 23.1 µM [inhibitor, single point]",
Cc1nn(-c2ccc(N3CCCCC3)nn2)c(C)c1CCC(=O)NCc1ccc(Cl)cc1,"inconclusive: 23.1 µM [inhibitor, single point]",
Cc1ccc(-n2c(SCC(=O)NCc3ccc4c(c3)OCO4)nnc2-c2cccnc2)c(C)c1,"inconclusive: 20.6 µM [inhibitor, single point]",
O=C(Cn1cc2c(n1)CCCC2)NC1CCCCCC1,,inactive: -15.4%
Clc1ccc(-c2csc(N/N=C\c3cccnc3)n2)cc1,"inconclusive: 18.4 µM [inhibitor, single point]",
NC(=O)c1cc2cc(Cl)ccc2oc1=O,,inactive: -4.2%
O=S1(=O)CCO[C@H]2CCCC[C@@H]2N1Cc1ccccc1Br,"inconclusive: 35.5 µM [inhibitor, single point]",
CCOC1=NN(c2ccccc2)C(=O)/C1=C\N(C)C,,inactive: 0.274%
O=C(O)CCc1ccc(S(=O)(=O)Nc2ccccc2C(=O)NCCc2ccccc2)cc1,,inactive: -2.25%
CCOc1cc(Cl)c(CNCCCN2CCOCC2)cc1OC,,inactive: 27.7%
O=C(NC(=O)N1CCCc2ccccc21)c1ccccc1,,inactive: -20.6%
O=C(O)Cc1cc(I)c(Oc2ccc(O)c(I)c2)c(I)c1,,inactive: 3.26% [at 21.1 µM]
CCn1cc(C(=O)N(C)c2ccc(OC)cc2OC)c2cc(OC)c(OC)cc2c1=O,,inactive: -11.4%
COc1cc(C2Nc3ccccc3C(=O)N2Cc2ccco2)cc(OC)c1OC (configuration not stated),"inconclusive: 15.8 µM [inhibitor, single point]",
O=C(/C=C/c1ccc([N+](=O)[O-])cc1)c1cccnc1,active: 14.6 µM,
CCC(C)NC(=O)c1sc2ncccc2c1-n1c(C)ccc1C (configuration not stated),active: 20.6 µM,

Structure (SMILES),Potency,"activity change, negative = growth inhibition"
O=C(NC1CCCC1)C1CCN(c2cnccn2)CC1,,inactive: -4.7%
S=c1[nH]nc(-c2cccs2)n1/N=C/c1c(Cl)cccc1Cl,,inactive: -17.3%
Cc1cc(NC(=O)C2CCCCC2C(=O)O)no1 (configuration not stated),,inactive: -3.59%
COc1ccc(Cl)cc1NC(=O)C(C)N1CCN(C/C=C/c2ccccc2)CC1 (configuration not stated),"inconclusive: 23.1 µM [inhibitor, single point]",
Cn1cc(S(=O)(=O)NC[C@H]2O[C@@H](n3ccc(=O)[nH]c3=O)[C@H](O)[C@@H]2O)cn1,,inactive: 14.2%
Cc1ccc(C)c(-c2[nH]c3c(c2-c2c(-n4cccc4)n(C)c(=O)n(C)c2=O)c(=O)n(C)c(=O)n3C)c1,"inconclusive: 18.4 µM [inhibitor, single point]",
Cc1cccc(NC(=O)COc2cccc3c(=O)n(C)ccc23)c1C,active: 23.1 µM,
OC(c1ccccc1)(c1ccccc1)C1CCN(CCCOc2cccc(OC(F)(F)F)c2)CC1,active: 16.4 µM,
N=c1c(C(=O)NCC2CCCO2)cc2c(=O)n3ccccc3nc2n1C1CCCCC1 (configuration not stated),,inactive: 1.89%
Cc1ccc(-n2nc(C(=O)N3CCN(c4cccc(C(F)(F)F)c4)CC3)c3c4ccccc4n(C)c3c2=O)cc1,,inconclusive: -0.783% [inhibitor]
COC(=O)[C@@H]1CCCN1Cc1ccc2c(c1)CN(Cc1nccs1)CCO2,,inactive: -2.64%
C(=C\c1ccccc1)/CN1CCN(Cc2nc(Cc3ccccc3)no2)CC1,"inconclusive: 18.4 µM [inhibitor, single point]",
Cc1cccc2nc(CSc3nc4[nH]ncc4c(=O)n3-c3cccc(Cl)c3)cc(=O)n12,"inconclusive: 20.6 µM [inhibitor, single point]",
Cn1c(NCc2c[nH]c3ccccc23)nc2ccccc21,"inconclusive: 29.1 µM [inhibitor, single point]",
CS(=O)(=O)c1ccccc1-c1nnc(NC(=O)c2ccc3ncsc3c2)o1,"inconclusive: 29.1 µM [inhibitor, single point]",
CCCCOCCCNC(=O)N[C@@H](CCSC)C(=O)OC,,inactive: -23.5%
O=C(c1cccc2nc3ccccc3nc12)N1CCOCC1,"inconclusive: 29.1 µM [inhibitor, single point]",
Cc1ccc(C(=O)N2CCCC(N3CCN(c4cccc(C(F)(F)F)c4)CC3)C2)s1 (configuration not stated),active: 1.3 µM,
Cc1ccc(CNc2nccn(-c3cc(C)cc(C)c3)c2=O)cc1,"inconclusive: 18.4 µM [inhibitor, partial curve, poor fit]",
COc1ccc(C(c2nnnn2Cc2ccc(F)cc2)N2CCN(c3ccc(OC)cc3)CC2)cc1 (configuration not stated),active: 23.1 µM,
CN(C)S(=O)(=O)c1cccc(-c2cn3cc(Cl)ccc3n2)c1,,inactive: -17.3%
COc1ccc(-c2cc(C(=O)OCC(=O)c3c(N)n(C)c(=O)n(C)c3=O)c3ccccc3n2)cc1,active: 4.11 µM,
O=C1CCCc2nc(N3CCN(Cc4ccccc4)CC3)ncc21,"inconclusive: 23.1 µM [inhibitor, partial curve, poor fit]",
CC(=O)N[C@@H](C)c1nc2ccccc2n1CCCN1CCN(c2nc(-c3ccc(C)cc3)cs2)CC1,active: 1.03 µM,
O=C1c2ccccc2C2=Nc3ccccc3SC(c3ccccc3F)C12 (configuration not stated),active: 14.6 µM,
CC(Oc1ccc(Cl)cc1)C(=O)Nc1cccc(S(=O)(=O)N2CCCC2)c1 (configuration not stated),,inconclusive: -2.68% [inhibitor]

Structure (SMILES),Potency,"activity change, negative = growth inhibition"
c1ccc2c(c1)[nH]c1ccccc12,,inactive: -13.4%
O=C(/C=C/c1cccc([N+](=O)[O-])c1)c1cccs1,active: 3.66 µM,
c1ccc2c(c1)Nc1ccncc1S2,,inactive: -18.8%
Cc1cccc(C(=O)N2CCCC(Nc3ccc(C)c(C)c3)C2)n1 (configuration not stated),,inactive: -0.191%
COc1cccc2cc(-c3nnc(SCC(=O)Nc4cc(C(F)(F)F)ccc4Cl)n3N)oc12,"inconclusive: 5.8 µM [inhibitor, full curve]",
COc1ccccc1/C=N/NC(=O)CO,,inactive: -11.8%
C=CCn1cccc(C(=O)Nc2cc(OC)c(OC)c(OC)c2)c1=O,"inconclusive: 29.1 µM [inhibitor, single point]",
O=C(O)/C=C\C(=O)Nc1ccc(N2CCN(c3ccc(Cl)c(Cl)c3)CC2)cc1,"inconclusive: 29.1 µM [inhibitor, single point]",
COc1ccc(C(CNC(=O)c2ccc(OCc3csc(C)n3)cc2)N2CCCC2)cc1 (configuration not stated),,inconclusive: -31% [inhibitor]
COC(=O)c1ccc(COc2ccccc2/C=N/O)o1,,inactive: 27.5%
COc1cc(/C=C/C(=O)OCC(=O)N(C)C2CCS(=O)(=O)C2)ccc1OC(F)F (configuration not stated),,inactive: 1.17%
COc1ccc2c(c1)c1nnc(SCC(=O)Nc3ccccc3F)nc1n2C,,inactive: -23%
CCOC(=O)c1cccc(NC(=O)CCc2c(C)nn(-c3ccc(N4CCOCC4)nn3)c2C)c1,active: 29.1 µM,
C=CCn1c(SCc2ccccc2Cl)nnc1-c1sc2nc(C)cc(C)c2c1N,"inconclusive: 29.1 µM [inhibitor, single point]",
NC(=S)N/N=C/c1ccccc1OC(=O)/C=C/c1ccccc1,active: 5.17 µM,
COCCNC(=S)N(CCc1c(C)[nH]c2ccc(OC)cc12)Cc1ccco1,"inconclusive: 29.1 µM [inhibitor, single point]",
CCOC(=O)c1ccc2ncc(C(=O)OCC)c(NCCN3CCOCC3)c2c1,"inconclusive: 2.31 µM [inhibitor, partial curve, poor fit]",
Cc1ccc(Nc2nc3ccccc3n3cnnc23)cc1C,,inactive: 5.42%
CCc1nnc(NC(=O)OCc2ccccc2)s1,,inactive: -23.3%
CCN(C(=O)CSc1nc2n[nH]c(C)c2c(=N)n1-c1cccc(OC)c1)c1cccc(C)c1,active: 23.1 µM,
O[C@@H]1CN(Cc2ccc(-n3cccn3)cc2)CC[C@H]1N1CCN(c2ccccc2F)CC1,active: 13 µM,
CCc1ccc(-n2nc(CO)c(C(=O)NCc3ccccc3OC)n2)cc1,,inactive: -0.824%
COc1ccc(OC)c(C2=CC(=O)C[C@H](c3ccc(F)cc3)C2)c1,"inconclusive: 18.4 µM [inhibitor, single point]",
O=C(CN(C(=O)CNS(=O)(=O)c1ccccc1)C1CCCC1)NCc1ccco1,,inactive: -3.53%
C[C@H]1[C@H]2c3nc4ccccc4n3C[C@H]1ON2C1CCCCC1,"inconclusive: 18.4 µM [inhibitor, single point]",
